Test results as given in the supplement of paper PMC3334620.
In all, about 33,000 sequences were measured (“E-score (-0.5 to 0.5)”: median about -0.054, highest 2% from about 0.35 on). The list shows a part of the results.

These sequences were tested against T1, Stb5 (UniProt P38699) (assay: PBM E-score (8-mer binding enrichment) (E-score (-0.5 to 0.5)); higher = stronger / more preferred TF binding; most listed sequences are background and not binding sites). Settings: protein concentration: 200 nM; construct: GST-full length.
T1 sequence: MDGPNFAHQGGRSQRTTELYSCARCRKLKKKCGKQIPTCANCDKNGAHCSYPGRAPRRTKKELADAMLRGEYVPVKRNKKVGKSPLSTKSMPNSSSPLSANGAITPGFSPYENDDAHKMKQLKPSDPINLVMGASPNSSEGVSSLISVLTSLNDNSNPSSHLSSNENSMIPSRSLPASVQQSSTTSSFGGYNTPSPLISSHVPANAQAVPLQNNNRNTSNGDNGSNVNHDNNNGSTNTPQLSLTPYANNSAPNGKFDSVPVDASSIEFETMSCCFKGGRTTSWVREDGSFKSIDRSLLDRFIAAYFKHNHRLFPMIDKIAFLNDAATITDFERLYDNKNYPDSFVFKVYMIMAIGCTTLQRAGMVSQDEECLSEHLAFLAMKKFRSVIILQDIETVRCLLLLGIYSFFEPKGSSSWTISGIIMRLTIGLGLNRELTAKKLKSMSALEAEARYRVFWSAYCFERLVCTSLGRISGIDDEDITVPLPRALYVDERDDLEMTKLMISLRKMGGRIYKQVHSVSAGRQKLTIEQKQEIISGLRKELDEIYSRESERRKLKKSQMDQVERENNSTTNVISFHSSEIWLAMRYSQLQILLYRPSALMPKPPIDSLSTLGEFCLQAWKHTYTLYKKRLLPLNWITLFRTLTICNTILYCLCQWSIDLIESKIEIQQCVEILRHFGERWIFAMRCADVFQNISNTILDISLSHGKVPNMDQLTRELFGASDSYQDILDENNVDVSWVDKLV
Procedure, shortened: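 PURExpress in vitro transcription/translation supplied GST-tagged yeast transcription factors, either full-length or DNA-binding domain. Applied at about 100-200 nM to universal all-10-mer Agilent arrays double-stranded by primer extension, the bound protein was detected with fluorescent anti-GST. E-scores, modified Wilcoxon-Mann-Whitney statistics, were given by the Universal PBM Analysis Suite to ungapped eight-base words pooled with their reverse complements after masliner normalisation.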

| Sequence | PBM E-score |
| --- | --- |
| AGCTGACA | -0.0791 |
| CCGTATTC | 0.073 |
| ACGCTCGA | -0.15 |
| GCTGCGCA | 0.0917 |
| AGTTGTAG | -0.228 |
| ACAAGGGA | -0.135 |
| ATGGGCAG | -0.202 |
| CCCGAAGA | 0.152 |
| CCAAACGA | -0.139 |
| TACGGCCA | 0.0496 |
| GCGAGAAC | -0.00097 |
| AGTCGACC | -0.0264 |
| GCATCCGA | 0.185 |
| CGGCTTTA | 0.439 |
| GCCCCGCA | 0.262 |
| ACAGCACA | -0.0678 |
| AACTAACG | 0.113 |
| ACCTGTCT | 0.0382 |
| ACTTAGCT | -0.191 |
| ATCTGTAA | -0.00108 |
| CTGCTTGC | -0.115 |
| CAATTGAG | -0.157 |
| GCCTAGGA | -0.16 |
| ACACCCCG | 0.331 |
| ATCTATCG | 0.0777 |

| Sequence | PBM E-score |
| --- | --- |
| ATTTTCTG | -0.13 |
| AAGCCCCA | -0.189 |
| ACGGAGCT | 0.373 |
| AGCAAGTC | -0.181 |
| ATAACTGC | 0.225 |
| CGCCCCTA | 0.117 |
| AACAGTAG | -0.261 |
| CGGACTGA | 0.359 |
| GTAACACA | 0.0304 |
| CGTACTGA | -0.0773 |
| ACGACGTC | -0.137 |
| CAAGAGAA | -0.156 |
| CGATCGGC | 0.304 |
| GGACTAAA | 0.334 |
| AAAGTCGC | 0.0343 |
| AATCAGAG | 0.123 |
| AATTTATG | 0.0298 |
| CACGGCCG | 0.156 |
| GATTTTGA | 0.0895 |
| CATACGCA | -0.124 |
| AGGACGAC | -0.155 |
| GTTGATGA | -0.12 |
| ACTCATGA | -0.0338 |
| ACCTCACC | -0.228 |
| TATATAAA | 0.0592 |

| Sequence | PBM E-score |
| --- | --- |
| CATTCTCA | -0.0326 |
| CCAATGGG | -0.173 |
| AGACCTTA | -0.224 |
| TATAATAA | 0.123 |
| TTTCCAAA | 0.146 |
| AGATTACG | -0.0226 |
| CAAGCTAG | -0.261 |
| CGCGACGA | 0.0271 |
| AGGTCGCC | -0.162 |
| AGAGTAGA | -0.181 |
| CAAACACA | -0.126 |
| CACGTTCC | -0.258 |
| ATGAAGCG | -0.158 |
| ACCGGTTC | 0.281 |
| CATCTAGC | -0.12 |
| TGGGTCAA | -0.358 |
| CATCCGCA | 0.197 |
| CGACGACG | 0.1 |
| CTTTATTA | 0.0102 |
| AAACTTAT | -0.0181 |
| AGGCAAGA | -0.0539 |
| ATCTCTTC | -0.207 |
| ACTCGCGC | 0.141 |
| CGAAAATA | 0.0942 |
| GAGAGTTA | -0.281 |

| Sequence | PBM E-score |
| --- | --- |
| CCATTACC | 0.152 |
| AGATCAGC | -0.129 |
| TGTGAACA | -0.149 |
| GTCGACAC | -0.0138 |
| CATCGTAC | -0.122 |
| TACGTAAA | -0.301 |
| CACCTTAA | -0.0239 |
| GTGTTGGA | -0.0809 |
| CGGGTCAA | 0.271 |
| TGGTCAAA | -0.217 |
| CCAGCCCC | -0.0874 |
| AATTATGG | -0.044 |
| CAATAGAC | -0.153 |
| GAGAGGGA | -0.339 |
| ATCCCTAC | -0.0562 |
| AGCTAACA | -0.194 |
| AGGCCAAT | -0.244 |
| CCGTTAGG | 0.163 |
| ACATCCCA | -0.258 |
| GACGCCCA | -0.243 |
| AACTAAGG | -0.132 |
| AAGGCGTG | -0.216 |
| GGCTTTGA | 0.0104 |
| CGACCCTC | -0.0291 |
| GAGAAGCA | -0.18 |

| Sequence | PBM E-score |
| --- | --- |
| CTAATAAA | -0.0169 |
| AGGCGAAC | -0.0434 |
| ACATGCCC | -0.14 |
| AGGTCTAA | -0.0469 |
| ACAATCGC | 0.0633 |
| ACCACGGT | 0.00322 |
| CCCGTAGA | 0.144 |
| AAATATGT | 0.0169 |
| CAAGTCCG | 0.356 |
| AAAATACT | -0.0258 |
| ATATTCAG | -0.00061 |
| CCCACCAG | -0.207 |
| ATGAGTCA | -0.321 |
| AATCAGGG | -0.278 |
| ACGGGACG | 0.0842 |
| GTCAGCGA | -0.189 |
| GCACCCCA | 0.103 |
| ATGAATTG | -0.00393 |
| AAGTTAGG | -0.0532 |
| ACTCCATC | 0.112 |
| AGTGTCAG | -0.263 |
| CTTAGGGA | -0.201 |
| ACTCGTCA | -0.163 |
| ACTTCCCC | -0.0637 |
| TTCGACAA | -0.274 |

| Sequence | PBM E-score |
| --- | --- |
| CTAGCACA | 0.0238 |
| ACGTGCAT | -0.334 |
| CGAGTAAC | 0.0469 |
| CCCCAACG | 0.013 |
| GTGTATCA | -0.0275 |
| GGACCCTA | -0.012 |
| GCTGCGGA | 0.277 |
| CAGCACAC | -0.183 |
| ACAACAAG | -0.226 |
| AAGGGGGG | -0.361 |
| ACTAGGGC | -0.0176 |
| ATCCAAAG | -0.19 |
| CGCCGCCG | 0.369 |
| GTCCTAAC | 0.0214 |
| CACAGCGC | 0.0388 |
| CAATCGTA | -0.225 |
| CGGTCTAG | 0.174 |
| GGAGGGCA | -0.0956 |
| CAATTTCA | -0.0803 |
| AAAATACG | 0.00986 |
| GACTCTAC | -0.136 |
| CAGTACTG | -0.0684 |
| ATGGATGC | -0.22 |
| ATTAACCG | 0.257 |
| TACTGGAA | -0.113 |

| Sequence | PBM E-score |
| --- | --- |
| CACTGCAC | -0.172 |
| AGTTCTTG | -0.195 |
| AAGATCGT | -0.0744 |
| ATGGTAAA | -0.215 |
| CGGAATAA | 0.132 |
| CTTTTTAC | 0.145 |
| CAGGGTCG | 0.211 |
| AAAGATCC | 0.154 |
| AGGTTCCG | 0.0658 |
| CTCTTTTA | -0.218 |
| TGCACAAA | -0.229 |
| AGCCATAC | -0.269 |
| CCCGGATC | 0.194 |
| ACCAGTTA | -0.288 |
| CGCTGTCA | 0.274 |
| CCGTTTAA | 0.254 |
| AGTGTCTC | -0.155 |
| AATCCTCG | -0.226 |
| GATGTTGC | 0.021 |
| ACAGACTC | -0.203 |
| ATATGGCA | -0.0337 |
| CACCCACG | -0.0363 |
